# Source: PubChem BioAssay (Tox21)
# Where “and” joins values, the source holds several entries; their conditions need not be identical. Equal values may be shown once. The shares of active, inactive and inconclusive entries below differ from those in the screen. A call without a number means that no potency is given here. For some assays here: A potency beside an inconclusive call is a rough fit, not a confirmed value. Calls of active or inactive are those of the source. Unless noted, calls follow the shape of the dose curve; as a rule, active = well fitted curve in the direction sought with a large enough effect in the repeat runs; inconclusive = weak or mixed curves; inactive = no such curve, though single readings can be large; an effect the other way counts as inactive or inconclusive.
# Tested on: not listed separately
# Test: qHTS assay to identify small molecule antagonists of the peroxisome proliferator-activated receptor delta (PPARd) signaling pathway - cell viability counter screen (AID 743213); also: nearly all actives have a fitted effect of over 50% in size; also: potency is read from the fitted curve at half-maximal effect
# Details: PPARd-bla HEK293H viability, CellTiter-Glo luminescence, 17 h; viability change, negative = cytotoxic: at 62 µM (top of the series) unless noted
# Outline: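 Same-well viability: cells pre-incubated 5 h, dosed with compound plus 300 nM L165041, kept 17 h at 37 C, FRET substrate 2 h RT, then CellTiter-Glo 30 min RT and luminescence.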
# Tags tell the direction and shape of the fitted curve or compound fluorescence and quenching.
row,SMILES,Potency
1,CN(C)CCCCCCN(C)C,inconclusive: 0.0012 µM [cytotoxic]
2,CC(=O)OC[C@H]1O[C@@H](OC(C)=O)[C@H](OC(C)=O)[C@@H]1OC(C)=O,"inconclusive: 0.668 µM [cytotoxic, single point]"
3,CCCCCC[C@@H](CCC)C(=O)O,inactive
4,NCCC(O)(P(=O)(O)O)P(=O)(O)O,inactive
5,CCN(CC)CCOC(=O)C(c1ccccc1)c1ccccc1,"inconclusive: 2.98 µM [cytotoxic, single point]"

# Target: Peroxisome proliferator-activated receptor delta (Homo sapiens) (UniProt Q03181)
# Test: qHTS assay to identify small molecule antagonists of the peroxisome proliferator-activated receptor delta (PPARd) signaling pathway (AID 743215; active = well fitted inhibition curve with a large enough effect in the signal ratio in the repeat runs, not every such curve was filed as active; inconclusive = weak or mixed curves, or effect the other way; inactive = no such curve, though single readings can be large or run the other way; the % refers to the signal ratio;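 also: cells stimulated with agonist L165041 at 300 nM final during compound exposure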; also: potency is read from the fitted curve at half-maximal effect)
# Details: HEK293H PPARd-UAS-bla, beta-lactamase FRET ratio, antagonist, 17 h; ratio activity, negative = inhibition: at 62 µM (top of the series) unless noted
# Outline: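 Plated HEK293H PPARd-bla cells rested 5 h at 37 C and 5% CO2. Compound, then agonist L165041 at 300 nM final, was added; 17 h at 37 C followed. Substrate loading, 2 h room temperature, fluorescence measured.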
# Sequence of UniProt Q03181 (Q03181 whole entry, looked up): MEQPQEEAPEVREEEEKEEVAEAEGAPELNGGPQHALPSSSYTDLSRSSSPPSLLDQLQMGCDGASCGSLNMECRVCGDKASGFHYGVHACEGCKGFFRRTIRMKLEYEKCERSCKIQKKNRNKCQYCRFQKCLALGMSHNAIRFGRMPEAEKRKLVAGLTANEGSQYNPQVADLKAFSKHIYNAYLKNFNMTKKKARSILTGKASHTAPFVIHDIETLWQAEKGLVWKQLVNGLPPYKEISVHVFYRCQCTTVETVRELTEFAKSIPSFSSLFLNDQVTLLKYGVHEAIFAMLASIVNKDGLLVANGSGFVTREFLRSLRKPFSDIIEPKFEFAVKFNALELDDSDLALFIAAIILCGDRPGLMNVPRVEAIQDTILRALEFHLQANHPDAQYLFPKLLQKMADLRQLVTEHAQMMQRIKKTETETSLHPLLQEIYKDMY
row,SMILES,Potency
1,CC(=O)OC[C@H]1O[C@@H](OC(C)=O)[C@H](OC(C)=O)[C@@H]1OC(C)=O,inactive
2,CCN(CC)CCOC(=O)C(c1ccccc1)c1ccccc1,inactive
3,CC(CCl)OP(=O)(OC(C)CCl)OC(C)CCl (stereo unspecified),"inconclusive: 0.206 µM [cytotoxic, single point]"

# Target: Bile acid receptor (Homo sapiens) (UniProt Q96RI1)
# Test: qHTS assay to identify small molecule antagonists of the farnesoid-X-receptor (FXR) signaling pathway (AID 743217; active = well fitted inhibition curve with a large enough effect in the signal ratio in the repeat runs, not every such curve was filed as active; inconclusive = weak or mixed curves, or effect the other way; inactive = no such curve, though single readings can be large or run the other way; the % refers to the signal ratio; also: potency is read from the fitted curve at half-maximal effect)
# Details: HEK293T FXR-UAS-bla, beta-lactamase ratio, CDCA-stimulated, 16 h; activity change, negative = inhibition: at 62.6 µM (top of the series) unless noted
# Outline: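 Screen of the Tox21 10K library in quantitative HTS format using FXR-UAS-bla HEK 293T reporter cells. Agonist chenodeoxycholic acid, 50 uM final, added with compounds; 16 h incubation at 37 °C; beta-lactamase FRET fluorescence measured.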
# Sequence of UniProt Q96RI1 (Q96RI1 whole entry, looked up): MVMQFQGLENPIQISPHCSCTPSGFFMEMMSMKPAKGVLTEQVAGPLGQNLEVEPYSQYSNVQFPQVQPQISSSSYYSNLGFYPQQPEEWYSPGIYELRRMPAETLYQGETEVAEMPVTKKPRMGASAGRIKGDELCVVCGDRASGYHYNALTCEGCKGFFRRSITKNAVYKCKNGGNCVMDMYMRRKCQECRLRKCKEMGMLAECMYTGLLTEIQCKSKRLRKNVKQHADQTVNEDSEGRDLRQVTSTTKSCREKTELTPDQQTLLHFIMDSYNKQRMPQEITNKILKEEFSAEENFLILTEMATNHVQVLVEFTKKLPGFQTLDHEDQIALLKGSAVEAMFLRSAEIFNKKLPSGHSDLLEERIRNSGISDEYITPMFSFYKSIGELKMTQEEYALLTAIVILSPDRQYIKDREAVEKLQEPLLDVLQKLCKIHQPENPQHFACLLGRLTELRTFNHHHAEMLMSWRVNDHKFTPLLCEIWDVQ
row,SMILES,Potency
1,CC(C)C(OC(=O)c1ccccc1)C(C)(C)COC(=O)c1ccccc1 (stereo unspecified),"inconclusive: 21.9 µM [inhibitor, partial curve]"
2,O=[N+]([O-])c1ccc(F)c(Cl)c1,inactive
3,CNC1CCCN(c2c(F)cc3c(=O)c(C(=O)O)cn(C4CC4)c3c2OC)C1 (stereo unspecified),inactive
4,NCCC(O)(P(=O)(O)O)P(=O)(O)O,inactive
5,Nc1ccc(Cl)c(N)c1,inactive

# Tested on: not listed separately
# Test: qHTS assay to identify small molecule agonists of the farnesoid-X-receptor (FXR) signaling pathway - cell viability counter screen (AID 743218); also: nearly all actives have a fitted effect of over 45% in size; also: potency is read from the fitted curve at half-maximal effect
# Details: FXR-bla HEK293T viability, CellTiter-Glo luminescence, 16 h; viability change, negative = cytotoxic: at 62.6 µM (top of the series) unless noted
# Outline: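 Viability of FXR-bla HEK 293T cells is measured by ATP-based CellTiter-Glo luminescence following 16 h compound treatment at 37 C and a prior 2 h room-temperature beta-lactamase substrate step.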
SMILES,Potency,"viability change, negative = cytotoxic"
CC(C)C(OC(=O)c1ccccc1)C(C)(C)COC(=O)c1ccccc1 (stereo unspecified),inactive,–
COc1cc(C)c(Cc2cnc(N)nc2N)cc1OC,inactive,–
OC[C@@H](O)[C@@H](O[C@@H]1O[C@H](CO)[C@H](O)[C@H](O)[C@H]1O)[C@H](O)[C@@H](O)CO,–,inconclusive: -20.5% [cytotoxic]
CC(C)N=C=NC(C)C,"inconclusive: 0.0061 µM [rising, full curve, poor fit]",–
CCNc1ccccc1,inactive,–
CC(C(=O)O)c1ccc2c(c1)Cc1cccnc1O2 (stereo unspecified),inactive,–
CCC1CCC(CCC(=O)O)C1 (stereo unspecified),inactive,–
Cc1cc([N+](=O)[O-])ccc1N,inactive,–
Nc1ccc(Cl)c(N)c1,"inconclusive: 3.48 µM [cytotoxic, partial curve] and inconclusive: 5.49 µM [cytotoxic, full curve, poor fit]",–
C1COCCN1,"inconclusive: 21.9 µM [rising, single point]",–
NCCOCCOCCN,active: 6.92 µM,–
CC(N=C(NC#N)Nc1ccncc1)C(C)(C)C (stereo unspecified),"inconclusive: 13.3 µM [rising, single point]",–
C=CC(=O)NC(C)C,inactive,–

# Target: Bile acid receptor (Homo sapiens) (UniProt Q96RI1)
# Test: qHTS assay to identify small molecule agonists of the farnesoid-X-receptor (FXR) signaling pathway (AID 743220; active = well fitted activation curve with a large enough effect in the signal ratio in the repeat runs, not every such curve was filed as active; inconclusive = weak or mixed curves, or effect the other way; the % refers to the signal ratio; also: potency is read from the fitted curve at half-maximal effect)
# Details: HEK293T FXR-UAS-bla, beta-lactamase FRET ratio, 16 h; activation: at 62.6 µM (top of the series) unless noted
# Outline: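 FXR-UAS-bla HEK 293T cells carrying a UAS-driven beta-lactamase reporter were plated for 5 h at 37C/5% CO2, then exposed to DMSO-dissolved Tox21 10K compounds for 16 h at 37C. A LiveBLAzer B/G FRET substrate was loaded for 2 h at room temperature before fluorescence reading.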
row,SMILES,Potency
1,CC(C)C(OC(=O)c1ccccc1)C(C)(C)COC(=O)c1ccccc1 (stereo unspecified),inconclusive: 49 µM [activator]
2,CC/C=C/CCO,inactive
3,C[N+]1(C)CCC(=C(c2ccccc2)c2ccccc2)CC1,inactive
4,C=CC(=O)NC(C)C,inactive
5,CC(CCl)OP(=O)(OC(C)CCl)OC(C)CCl (stereo unspecified),"inconclusive: 61.8 µM [rising, partial curve, poor fit]"

# Tested on: not listed separately
# Test: qHTS assay to identify small molecule antagonists of the farnesoid-X-receptor (FXR) signaling pathway - cell viability counter screen (AID 743221; active = well fitted cell-killing curve with a large enough effect in the repeat runs, not every such curve was filed as active; inconclusive = weak or mixed curves, or effect the other way; inactive = no such curve, though single readings can be large or run the other way; also: nearly all actives have a fitted effect of over 50% in size; also: potency is read from the fitted curve at half-maximal effect)
# Details: FXR-bla HEK293T viability, CellTiter-Glo luminescence, 16 h; activity change, negative = cytotoxicity: at 62.6 µM (top of the series)
# Outline: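 CellTiter-Glo, 30 min RT, luminescence; same wells as the LiveBLAzer FRET read. Cells: FXR-UAS-bla HEK 293T. Treatment: compound with chenodeoxycholic acid 50 uM final, 16 h at 37 C.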
row,SMILES,Potency
1,O=C(Oc1ccccc1)c1ccc2ccccc2c1O,"inconclusive: 61.6 µM [rising, single point]"
2,COc1cc(C)c(Cc2cnc(N)nc2N)cc1OC,inactive
3,CC(C)N=C=NC(C)C,inactive
4,Nc1ccc(Cl)c(N)c1,"inconclusive: 17.4 µM [falling, partial curve, poor fit]"
5,CN(C)CCCN1c2ccccc2CCc2ccccc21,"inconclusive: 10.6 µM [falling, partial curve]"
6,CC(N=C(NC#N)Nc1ccncc1)C(C)(C)C (stereo unspecified),inactive
7,CC(=O)[O][Al][O]C(C)=O,inactive

# Target: Vitamin D3 receptor (Homo sapiens) (UniProt P11473)
# Test: qHTS assay to identify small molecule agonists of the vitamin D receptor (VDR) signaling pathway (AID 743222; calls by dose curve; also: potency is read from the fitted curve at half-maximal effect)
# Details: HEK293T VDR-UAS-bla, beta-lactamase FRET ratio, 16 h; activation: at 63.5 µM (top of the series) unless noted
# Outline: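 Fluorescence from cleaved LiveBLAzer B/G FRET substrate served as readout. VDR-bla cells had been treated 16 h at 37C with test compounds in DMSO, following a 4 h settling period, and substrate was loaded for 2 h at RT.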
# Sequence of UniProt P11473 (P11473 whole entry, looked up): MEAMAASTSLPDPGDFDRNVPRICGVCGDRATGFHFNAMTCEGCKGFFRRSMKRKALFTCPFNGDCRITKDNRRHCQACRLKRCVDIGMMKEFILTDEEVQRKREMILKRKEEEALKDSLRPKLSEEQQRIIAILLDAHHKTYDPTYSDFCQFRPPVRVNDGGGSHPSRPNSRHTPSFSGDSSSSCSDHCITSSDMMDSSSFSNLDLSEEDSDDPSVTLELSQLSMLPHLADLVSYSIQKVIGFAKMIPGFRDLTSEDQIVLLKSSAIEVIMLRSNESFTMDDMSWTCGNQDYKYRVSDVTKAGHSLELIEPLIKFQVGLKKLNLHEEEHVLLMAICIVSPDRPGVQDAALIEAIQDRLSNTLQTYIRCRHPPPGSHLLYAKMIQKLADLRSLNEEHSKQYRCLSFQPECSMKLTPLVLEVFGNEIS
SMILES,activation,Potency
CC(C)C(OC(=O)c1ccccc1)C(C)(C)COC(=O)c1ccccc1 (stereo unspecified),inconclusive: -24.8%,–
O=[N+]([O-])c1ccc(F)c(Cl)c1,–,inactive
CC(C)N=C=NC(C)C,inconclusive: 0.131%,–
Cc1ccc(C)c(C)c1,–,inactive
CC(=O)CCc1ccccc1,–,inactive
CC(C(=O)O)c1ccc2c(c1)Cc1cccnc1O2 (stereo unspecified),–,inactive
O=C(O)COCC(=O)O,–,inactive
CCC1CCC(CCC(=O)O)C1 (stereo unspecified),–,"inconclusive: 56.2 µM [rising, partial curve, poor fit]"
O=C(C(=O)c1ccco1)c1ccco1,–,inactive

# Target: Vitamin D3 receptor (Homo sapiens) (UniProt P11473)
# Test: qHTS assay to identify small molecule antagonists of the vitamin D receptor (VDR) signaling pathway (AID 743223; active = well fitted inhibition curve with a large enough effect in the signal ratio in the repeat runs, not every such curve was filed as active; inconclusive = weak or mixed curves, or effect the other way; inactive = no such curve, though single readings can be large or run the other way; the % refers to the signal ratio)
# Details: VDR-UAS-bla HEK293T, beta-lactamase FRET ratio, 16 h; activity change, negative = inhibition: at 61 µM (top of the series) unless noted
# Outline: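 After VDR-bla cells are plated and left 4 h at 37C, DMSO-dissolved compounds and 3 nM (final) calcitriol agonist are added. Incubation continues 16 h at 37C; FRET beta-lactamase substrate then develops 2 h at room temperature.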
SMILES,Potency,"activity change, negative = inhibition"
CC(C)COC(=O)C(C)C,inactive,–
CC(C)C(OC(=O)c1ccccc1)C(C)(C)COC(=O)c1ccccc1 (stereo unspecified),inactive,–
O=[N+]([O-])c1ccc(F)c(Cl)c1,inactive,–
CN(C)CCCCCCN(C)C,inactive,–
C/C(C=O)=C\c1ccccc1,inactive,–
CC(=O)OC[C@H]1O[C@@H](OC(C)=O)[C@H](OC(C)=O)[C@@H]1OC(C)=O,inactive,–
CC/C=C/CCO,–,inconclusive: -6.99% [at 78.8 µM]
OC[C@@H](O)[C@@H](O[C@@H]1O[C@H](CO)[C@H](O)[C@H](O)[C@H]1O)[C@H](O)[C@@H](O)CO,–,inconclusive: -15.2%
CCOC(=O)C(C)O (stereo unspecified),–,inconclusive: 29.3% [at 78.8 µM]
Cc1ccc(C)c(C)c1,–,inconclusive: 1.29% [at 78.8 µM]
CC(=O)CCc1ccccc1,inactive,–
COCCOCCOCCO,inactive,–
C=CCn1c(=O)n(CC=C)c(=O)n(CC=C)c1=O,inactive,–
CCNc1ccccc1,–,inconclusive: 0.0707%
CC(C(=O)O)c1ccc2c(c1)Cc1cccnc1O2 (stereo unspecified),inactive,–
NCC1CCCC(CN)C1 (stereo unspecified),–,inconclusive: -0.488%
CCN(CC)CCOC(=O)C(c1ccccc1)c1ccccc1,–,inconclusive: -0.474%
CCC1CCC(CCC(=O)O)C1 (stereo unspecified),inactive,–
Cc1cc([N+](=O)[O-])ccc1N,inactive,–
NCCCCCCN,–,inconclusive: 14%
C1COCCN1,–,inconclusive: 6.35% [at 78.8 µM]
NCCOCCOCCN,–,inconclusive: 23.4%
OCCCCC(O)CO (stereo unspecified),inactive,–
C=CC(=O)NC(C)C,–,inconclusive: 28.8%
